# The full ranking holds about 33,000 sequences; the median of “E-score (-0.5 to 0.5)” is about -0.021, and the highest 2% start at about 0.32. This is one part of the list.
# Target: T1, Zap1 (UniProt P47043)
# T1 sequence: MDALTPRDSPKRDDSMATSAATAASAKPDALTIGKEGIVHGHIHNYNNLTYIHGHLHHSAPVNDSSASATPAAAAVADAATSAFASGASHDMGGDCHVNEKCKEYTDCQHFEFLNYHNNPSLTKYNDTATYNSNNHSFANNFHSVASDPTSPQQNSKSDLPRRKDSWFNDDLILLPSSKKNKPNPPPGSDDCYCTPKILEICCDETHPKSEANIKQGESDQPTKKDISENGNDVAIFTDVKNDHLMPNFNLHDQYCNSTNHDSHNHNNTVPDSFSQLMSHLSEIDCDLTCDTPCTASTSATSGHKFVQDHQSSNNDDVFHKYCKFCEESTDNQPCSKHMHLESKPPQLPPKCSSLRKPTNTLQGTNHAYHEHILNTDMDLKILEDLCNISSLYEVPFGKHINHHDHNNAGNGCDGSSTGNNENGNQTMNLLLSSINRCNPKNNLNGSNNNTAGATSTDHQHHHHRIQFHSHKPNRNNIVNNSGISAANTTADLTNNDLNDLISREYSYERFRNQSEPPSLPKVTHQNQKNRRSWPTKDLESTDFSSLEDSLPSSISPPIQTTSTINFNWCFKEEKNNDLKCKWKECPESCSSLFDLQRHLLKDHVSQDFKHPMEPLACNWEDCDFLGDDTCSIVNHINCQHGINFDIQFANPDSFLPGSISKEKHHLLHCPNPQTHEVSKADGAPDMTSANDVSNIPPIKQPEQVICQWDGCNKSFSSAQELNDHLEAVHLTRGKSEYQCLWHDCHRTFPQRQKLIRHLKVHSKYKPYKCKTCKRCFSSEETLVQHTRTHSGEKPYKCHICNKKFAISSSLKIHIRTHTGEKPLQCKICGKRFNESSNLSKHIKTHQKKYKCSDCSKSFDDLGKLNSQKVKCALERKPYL
# Assay: PBM E-score (8-mer binding enrichment) (E-score (-0.5 to 0.5)); higher = stronger / more preferred TF binding; most listed sequences are background and not binding sites
# Settings: protein concentration: 200 nM; construct: GST-full length
# Description: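 Universal 'all 10-mer' protein binding microarrays (Agilent AMADID 015681) probed with GST-tagged S. cerevisiae TFs (full-length or DBD) made by in vitro transcription/translation (PURExpress), about 100-200 nM. Bound TF was detected with fluorescent anti-GST. Each ungapped 8-mer (which stands for itself and its reverse complement) is scored by the PBM enrichment score (E-score), a modified Wilcoxon-Mann-Whitney statistic from -0.5 to +0.5, computed with the Universal PBM Analysis Suite. Scale: above 0.35 generally sequence-specific binding.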
row,Sequence,PBM E-score
1,CTACAAAC,0.0847
2,AATCTCGC,-0.0495
3,CAGCATTA,-0.1
4,AAGCACAA,0.154
5,CTAGCCAG,-0.127
6,GGCTATAC,-0.135
7,AACTTTTG,0.202
8,ACCATTAT,0.282
9,CGCGTCGC,-0.204
10,AAGGTAAA,0.187
11,TGACATAA,0.0975
12,AACAATCT,-0.0319
13,TATTAACA,0.166
14,AGAAGTGG,-0.243
15,CACGATGG,-0.245
16,AGTCGGTG,-0.199
17,GCACCTAA,0.0772
18,AATGCGAG,0.119
19,ACGCGAAT,-0.00753
20,GGACTAGA,-0.0749
21,ACATGTAT,-0.00295
22,CGCAAGCA,0.014
23,CGCCCTCA,-0.099
24,ATGAAGGC,-0.0524
25,CTTAACCA,0.376

row,Sequence,PBM E-score
1,AGATGACC,0.283
2,TAAACGAA,0.109
3,ACCGCAGG,0.197
4,AACTTCTT,0.0979
5,CATGTGAC,0.0821
6,AACATAGA,0.0203
7,CCATATCC,0.00402
8,AGGGCGAT,-0.276
9,GCCTTCGC,-0.189
10,CGTGCGAA,-0.0433
11,ACCCAAAA,0.345
12,GGTACGTA,0.0757
13,CAAGGCAA,-0.156
14,TATATACA,0.163
15,ACCCGGCG,0.0443
16,AGCAGACT,-0.121
17,CAGACTGA,-0.165
18,CTATTTCC,0.0187
19,CACACCCC,-0.0271
20,ACATACGT,-0.164
21,ATAGGTCA,0.301
22,AGGGGGTG,-0.204
23,CGCCTGAA,-0.0343
24,ACAATGAC,0.0347
25,GAATTTAC,0.00277

row,Sequence,PBM E-score
1,ACAGGCTG,-0.383
2,ACGGGAAA,-0.0137
3,GACAAGGC,-0.317
4,AATAACTG,0.14
5,GCTCGAGC,-0.169
6,AATCGGAC,-0.1
7,CCACTGTA,0.173
8,GGCGTGAA,-0.164
9,ACTGAGCG,-0.147
10,AAGTCCAC,-0.026
11,GCGTATCA,0.0484
12,CAGCGGCA,-0.199
13,ACCAGTGA,0.085
14,GAATTGAA,-0.0182
15,CTAGCCTC,-0.132
16,CGACTTGA,-0.157
17,TGACAGCA,0.0488
18,CACACTAG,-0.11
19,ACGACGTG,-0.233
20,ACGAATGA,0.0909
21,GGCTACAA,0.0863
22,GTTCAAGA,-0.0423
23,ATCGGAAA,0.0434
24,GCCTACCC,-0.0197
25,CCGCCGTC,-0.143

row,Sequence,PBM E-score
1,GCCCTACC,0.0168
2,ATGGAGCA,0.00134
3,AACTCCTC,-0.295
4,GCGGCATA,-0.0646
5,TAATGAAA,0.215
6,TACTTACA,0.0955
7,AGGACATC,0.0966
8,CAGGCGAG,-0.225
9,CGCGCAGA,0.0131
10,ATGGTGGG,-0.147
11,GTGACAAA,0.0704
12,GGACCCGA,0.0568
13,TAAATACA,0.0515
14,TCGTGAAA,-0.0389
15,AACTCTCG,-0.0525
16,GGACTTTA,-0.099
17,TGTGCTAA,0.0634
18,AACCTTAG,0.324
19,AGTATGCG,-0.12
20,CCCCGCCA,0.116
21,AGGCGTCG,-0.146
22,CAGTTATG,0.0774
23,AGACTTAT,-0.107
24,GCACCCGA,0.314
25,AACGTGCT,-0.289

row,Sequence,PBM E-score
1,AAATAATA,0.0675
2,ACCAACGG,-0.0577
3,AGCGGTTG,0.216
4,CGGCAGAC,-0.235
5,AGCAGGGG,-0.0612
6,ATGGTGCC,-0.22
7,CTGTGCTC,-0.113
8,GAACTCAA,0.116
9,AGCGGCTG,-0.217
10,GAAAGGGA,-0.107
11,GCACTAAC,-0.166
12,AATTTTGT,0.101
13,AGCACGAC,-0.0783
14,ATCCTGGC,-0.0606
15,AATTCAGC,-0.109
16,CACAGTCC,-0.0387
17,GCCGCAGC,-0.242
18,ACCTCATG,0.226
19,GGAGAATA,-0.0248
20,CGTGCGGC,-0.0871
21,CAGAAGCG,-0.0447
22,GTTTTAAA,0.175
23,GCGGGTGA,0.0991
24,GTAATTAC,0.209
25,GTGTCCAA,0.0157

row,Sequence,PBM E-score
1,ACCGTAGC,-0.102
2,CGTCAACC,-0.0189
3,GATATTTA,0.089
4,TAGTTGCA,0.116
5,CCACGACA,-0.1
6,CAGGGAGG,-0.24
7,ACGCTGGA,-0.218
8,CTGTTATC,0.0763
9,AAACGTCA,-0.153
10,GGTGGGCA,-0.0358
11,CCACTACG,0.00089
12,GAGACAGA,-0.113
13,ATTCGGTC,-0.00249
14,CAACGCGA,0.00035
15,ACCGCGCA,0.19
16,GAACGAGA,-0.227
17,GTTGGCCA,-0.015
18,ACGGACGC,-0.169
19,CCGGCGCG,0.0165
20,ATCATCAG,-0.0715
21,TATGTAAA,0.2
22,AGTATCAA,0.0988
23,CCGCTTCG,-0.153
24,AACAAGCA,-0.00089
25,CGGTTGGA,-0.226

row,Sequence,PBM E-score
1,ATTGCAGG,0.0374
2,AGATGGTG,-0.0964
3,ATTGAAAT,0.127
4,TTTACAAA,0.151
5,ACATAACG,0.0512
6,CCTTTATA,0.128
7,CCCCGTGC,-0.114
8,TACGACAA,0.0958
9,CGCGTACC,-0.0155
10,AGAAGATG,0.0389
11,ACAGGTAT,0.112
12,ACCACTCC,0.158
13,CTACAGTC,-0.0915
14,GTGCGAAC,-0.219
15,AGCCTTTA,0.132
16,ATCGCGGA,-0.0629
17,AGATCCGG,-0.0775
18,CCATGTTC,-0.192
19,GACGCGAA,-0.12
20,AAAAGAAT,-0.00144
21,ACGCACGT,-0.142
22,ACGATAGA,-0.0715
